Each structure is given as a SMILES string. The list shows a part of the results. Many values rest on one well or one pass, so single values are uncertain.
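Further: cell number obtained by counting DAPI-stained nuclei in high-throughput microscope images with image analysis software, screen run in 1,536-well plates.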

One experiment deals with 501Mel. Description: cell count relative to DMSO control; melanoma cells; higher = more viable cells. As to conditions: library dose: low library concentration; 72 h.
In the case of `OCCn1cc(-c2cnc3nnn(Cc4ccc5ncccc5c4)c3n2)cn1` + CN(NC(=O)CC(=O)NN(C)C(=S)c1ccccc1)C(=S)c1ccccc1 [STA4783] (first compound 1 µM, partner dose 0.006 µM), the cell count was 61.2%.
Same read-out and setting: the value for `C=CCn1c(=O)c2cnc(Nc3ccc(N4CCN(C)CC4)cc3)nc2n1-c1cccc(C(C)(C)O)n1` + O=C1NC(=O)/C(=C/c2ccc(-c3ccc(F)cc3O)o2)S1 [AS252424] (first compound 0.02 µM, partner dose 1 µM) was 105%; that for `NC(=O)Nc1cc(-c2cccc(F)c2)sc1C(=O)N[C@H]1CCCNC1` + C[C@@H]1CCN(C(=O)CC#N)C[C@@H]1N(C)c1ncnc2[nH]ccc12 [CP690550] (first compound 0.02 µM, partner dose 1 µM) was 115%.
On the same count and under the same terms, the figure for `Cc1nc(Nc2ncc(C(=O)Nc3c(C)cccc3Cl)s2)cc(N2CCN(CCO)CC2)n1` [dasatanib] + O=C1NC(=O)/C(=C/c2ccc(-c3ccc(F)cc3O)o2)S1 [AS252424] (first compound 0.004 µM, partner dose 1 µM) is 79.1%.
Regarding `NCC(=O)Nc1ccc(-n2nc(C(F)(F)F)cc2-c2ccc3c(ccc4ccccc43)c2)cc1` + Oc1nc(-c2ccc(C(F)(F)F)cc2)nc2c1CSCC2 [XAV939] (first compound 1 µM, partner dose 2 µM), the cell count was determined as 41.6%.
Still for that read-out and setting: the figure for `NCC(=O)Nc1ccc(-n2nc(C(F)(F)F)cc2-c2ccc3c(ccc4ccccc43)c2)cc1` + COc1ccc(COc2ccc(Cc3cnc(N)nc3N)cc2OC)cc1 [GW2580] (first compound 1 µM, partner dose 1 µM) is 39.9%; for `NCC(=O)Nc1ccc(-n2nc(C(F)(F)F)cc2-c2ccc3c(ccc4ccccc43)c2)cc1` + Cc1cc([N+](=O)[O-])ccc1NS(=O)(=O)c1cc(Cl)ccc1Cl [FH535] (first compound 1 µM, partner dose 1 µM) it is 46.2%.

A further experiment deals with A101D. Described as above. Particulars: library dose: low library concentration; 72 h.
With `C[C@]1(c2nc3c(C(N)=O)cccc3[nH]2)CCCN1` [Veliparib] + Oc1cc(-c2nc(-c3ccccc3)[nH]c2-c2ccncc2)ccc1Cl [L779450] (first compound 1.4 µM, partner dose 0.2 µM), the cell count is 107%.
Still for that read-out and setting: the value for `CN(C)S(=O)(=O)c1ccc2c(c1)/C(=C/c1cc3c([nH]1)CCCC3)C(=O)N2` + O=C(O)c1ccc(-c2c[nH]c3ncc(-c4ccccc4)cc23)cc1C1CCCC1 [GSK650394] (first compound 0.4 µM, partner dose 0.16 µM) was 104%; that for `NC(=O)Nc1cc(-c2cccc(F)c2)sc1C(=O)N[C@H]1CCCNC1` + Cc1cc(N2CCOCC2)cc2[nH]c(-c3c(NC[C@@H](O)c4cccc(Cl)c4)cc[nH]c3=O)nc12 [BMS536924] (first compound 0.02 µM, partner dose 0.2 µM) was 88.8%; that for `C=CCn1c(=O)c2cnc(Nc3ccc(N4CCN(C)CC4)cc3)nc2n1-c1cccc(C(C)(C)O)n1` + CCN(CC)CCCCNc1ncc2cc(-c3cc(OC)cc(OC)c3)c(NC(=O)NC(C)(C)C)nc2n1 [PD173074] (first compound 0.02 µM, partner dose 0.1 µM) was 83.1%.
The same measure, in the same setting: the value for `Cc1nc(Nc2ncc(C(=O)Nc3c(C)cccc3Cl)s2)cc(N2CCN(CCO)CC2)n1` [dasatanib] + O=S(=O)(c1ccccc1)N(CC(F)(F)F)c1ccc(C(O)(C(F)(F)F)C(F)(F)F)cc1 [T0901317] (first compound 0.004 µM, partner dose 1.4 µM) was 70.7%; that for `OCCn1cc(-c2cnc3nnn(Cc4ccc5ncccc5c4)c3n2)cn1` + Cn1cc(/C=C2\C(=O)Nc3cccnc32)c2ccccc21 [GW441756] (first compound 1 µM, partner dose 0.4 µM) was 109%; that for `NC(=O)Nc1cc(-c2cccc(F)c2)sc1C(=O)N[C@H]1CCCNC1` + O=C(O)C(=O)Nc1sc2c(c1C(=O)O)CCNC2 [TCS401] (first compound 0.02 µM, partner dose 1.66667 µM) was 99.7%.
On the same count and under the same terms, the figure for `OCCn1cc(-c2cnc3nnn(Cc4ccc5ncccc5c4)c3n2)cn1` + CCCCCCCCCCCC1=C(O)C(=O)C=C(O)C1=O [Embelin] (first compound 1 µM, partner dose 1.2 µM) is 99.9%; for `Cc1nc(Nc2ncc(C(=O)Nc3c(C)cccc3Cl)s2)cc(N2CCN(CCO)CC2)n1` [dasatanib] + COC(=O)c1sccc1S(=O)(=O)Nc1ccc(Nc2ccccc2)cc1OC [GSK0660] (first compound 0.004 µM, partner dose 1 µM) it is 81.1%; for `C[C@]1(c2nc3c(C(N)=O)cccc3[nH]2)CCCN1` [Veliparib] + CCN(CC)CCCCNc1ncc2cc(-c3cc(OC)cc(OC)c3)c(NC(=O)NC(C)(C)C)nc2n1 [PD173074] (first compound 1.4 µM, partner dose 0.1 µM) it is 94.7%.
`C=CCn1c(=O)c2cnc(Nc3ccc(N4CCN(C)CC4)cc3)nc2n1-c1cccc(C(C)(C)O)n1` + COC(=O)c1sccc1S(=O)(=O)Nc1ccc(Nc2ccccc2)cc1OC [GSK0660] (first compound 0.02 µM, partner dose 1 µM) registered a cell count of 108%.
Regarding `NC(=O)Nc1cc(-c2cccc(F)c2)sc1C(=O)N[C@H]1CCCNC1` + O=C(Nc1ccccc1)c1cc([N+](=O)[O-])ccc1Cl [GW9662] (first compound 0.02 µM, partner dose 2 µM), the cell count is 97.3%.
Still for that read-out and setting: the value for `OCCn1cc(-c2cnc3nnn(Cc4ccc5ncccc5c4)c3n2)cn1` + Cn1cncc1[C@@](N)(c1ccc(Cl)cc1)c1ccc2c(c1)c(-c1cccc(Cl)c1)cc(=O)n2C [tipifarnib] (first compound 1 µM, partner dose 0.01 µM) was 92.4%; that for `CN(C)S(=O)(=O)c1ccc2c(c1)/C(=C/c1cc3c([nH]1)CCCC3)C(=O)N2` + O=C(Nc1ccccc1)c1cc([N+](=O)[O-])ccc1Cl [GW9662] (first compound 0.4 µM, partner dose 2 µM) was 77%; that for `CN(C)S(=O)(=O)c1ccc2c(c1)/C(=C/c1cc3c([nH]1)CCCC3)C(=O)N2` + CCc1ccc(CCOc2ccc(CC3SC(=O)NC3=O)cc2)nc1 [pioglitazone] (first compound 0.4 µM, partner dose 2 µM) was 91.6%.
The same measure, in the same setting: the value for `Cc1nc(Nc2ncc(C(=O)Nc3c(C)cccc3Cl)s2)cc(N2CCN(CCO)CC2)n1` [dasatanib] + Cc1cc([N+](=O)[O-])ccc1NS(=O)(=O)c1cc(Cl)ccc1Cl [FH535] (first compound 0.004 µM, partner dose 1 µM) was 76.3%; that for `OCCn1cc(-c2cnc3nnn(Cc4ccc5ncccc5c4)c3n2)cn1` + CN(C)S(=O)(=O)c1ccc2c(c1)/C(=C/c1cc3c([nH]1)CCCC3)C(=O)N2 [SU6656] (first compound 1 µM, partner dose 0.4 µM) was 95.1%; that for `CN(C)S(=O)(=O)c1ccc2c(c1)/C(=C/c1cc3c([nH]1)CCCC3)C(=O)N2` + COc1ccc2c(c1)CCC1C2CCC2(C)C(NCCCCCCN3C(=O)C=CC3=O)CCC12 [U73122] (first compound 0.4 µM, partner dose 0.4 µM) was 85.7%.
In turn, `CO[C@@H]1[C@H](N(C)C(=O)c2ccccc2)C[C@H]2O[C@]1(C)n1c3ccccc3c3c4c(c5c6ccccc6n2c5c31)C(=O)NC4` [Midostaurin] + Oc1nc(-c2ccc(C(F)(F)F)cc2)nc2c1CSCC2 [XAV939] (first compound 0.08 µM, partner dose 2 µM) came in with a cell count of 83.6%.
As to `CO[C@@H]1[C@H](N(C)C(=O)c2ccccc2)C[C@H]2O[C@]1(C)n1c3ccccc3c3c4c(c5c6ccccc6n2c5c31)C(=O)NC4` [Midostaurin] + C[C@@H]1CCN(C(=O)CC#N)C[C@@H]1N(C)c1ncnc2[nH]ccc12 [CP690550] (first compound 0.08 µM, partner dose 1 µM), the cell count turned out to be 88.2%.
The same measure, in the same setting: the value for `C[C@]1(c2nc3c(C(N)=O)cccc3[nH]2)CCCN1` [Veliparib] + CC(C)CCN1c2nc(Nc3cc(F)c(O)c(F)c3)ncc2N(C)C(=O)C1C [BID1870] (first compound 1.4 µM, partner dose 0.2 µM) was 88.9%; that for `CO[C@@H]1[C@H](N(C)C(=O)c2ccccc2)C[C@H]2O[C@]1(C)n1c3ccccc3c3c4c(c5c6ccccc6n2c5c31)C(=O)NC4` [Midostaurin] + CC(C)(C)c1cnc(CSc2cnc(NC(=O)C3CCNCC3)s2)o1 [SNS-032] (first compound 0.08 µM, partner dose 0.01 µM) was 87.3%.
Same read-out and setting: the value for `NC(=O)Nc1cc(-c2cccc(F)c2)sc1C(=O)N[C@H]1CCCNC1` + COc1ccc(-c2ccc3c(N4CCOCC4)nc(N4C[C@@H](C)O[C@@H](C)C4)nc3n2)cc1CO [KU0063794] (first compound 0.02 µM, partner dose 0.02 µM) was 103%; that for `C[C@]1(c2nc3c(C(N)=O)cccc3[nH]2)CCCN1` [Veliparib] + COc1cc2ncnc(Nc3ccc(Oc4ccccc4)cc3)c2cc1OC [SrcI1] (first compound 1.4 µM, partner dose 2 µM) was 92.8%.
The same measure, in the same setting: the value for `OCCn1cc(-c2cnc3nnn(Cc4ccc5ncccc5c4)c3n2)cn1` + COc1ccc2c(c1)CCC1C2CCC2(C)C(NCCCCCCN3C(=O)C=CC3=O)CCC12 [U73122] (first compound 1 µM, partner dose 0.4 µM) was 109%.
Regarding `NCC(=O)Nc1ccc(-n2nc(C(F)(F)F)cc2-c2ccc3c(ccc4ccccc43)c2)cc1` + CN(NC(=O)CC(=O)NN(C)C(=S)c1ccccc1)C(=S)c1ccccc1 [STA4783] (first compound 1 µM, partner dose 0.006 µM), the cell count was found to be 95.2%.

These data come from the supplement of paper PMC4604168 (melanoma cell lines).
